Where “and” joins values, the source holds several entries; their conditions need not be identical. Equal values may be shown once. In all, about 16,000 compounds went through this assay and about 40 (0.2%) were called active. Inconclusive results (about 1%) are left out. Calls follow the shape of the dose curve; as a rule, active = well fitted activation curve with a large enough effect; inconclusive = small, poorly fitted or top-dose-only effect, or another doubt; inactive = no such curve, though single readings can be large or run the other way. The list shows a part of the results.
Target: Rap guanine nucleotide exchange factor 4 (Homo sapiens) (UniProt Q8WZA2)
UniProt Q8WZA2, sequence (Q8WZA2 whole entry, looked up): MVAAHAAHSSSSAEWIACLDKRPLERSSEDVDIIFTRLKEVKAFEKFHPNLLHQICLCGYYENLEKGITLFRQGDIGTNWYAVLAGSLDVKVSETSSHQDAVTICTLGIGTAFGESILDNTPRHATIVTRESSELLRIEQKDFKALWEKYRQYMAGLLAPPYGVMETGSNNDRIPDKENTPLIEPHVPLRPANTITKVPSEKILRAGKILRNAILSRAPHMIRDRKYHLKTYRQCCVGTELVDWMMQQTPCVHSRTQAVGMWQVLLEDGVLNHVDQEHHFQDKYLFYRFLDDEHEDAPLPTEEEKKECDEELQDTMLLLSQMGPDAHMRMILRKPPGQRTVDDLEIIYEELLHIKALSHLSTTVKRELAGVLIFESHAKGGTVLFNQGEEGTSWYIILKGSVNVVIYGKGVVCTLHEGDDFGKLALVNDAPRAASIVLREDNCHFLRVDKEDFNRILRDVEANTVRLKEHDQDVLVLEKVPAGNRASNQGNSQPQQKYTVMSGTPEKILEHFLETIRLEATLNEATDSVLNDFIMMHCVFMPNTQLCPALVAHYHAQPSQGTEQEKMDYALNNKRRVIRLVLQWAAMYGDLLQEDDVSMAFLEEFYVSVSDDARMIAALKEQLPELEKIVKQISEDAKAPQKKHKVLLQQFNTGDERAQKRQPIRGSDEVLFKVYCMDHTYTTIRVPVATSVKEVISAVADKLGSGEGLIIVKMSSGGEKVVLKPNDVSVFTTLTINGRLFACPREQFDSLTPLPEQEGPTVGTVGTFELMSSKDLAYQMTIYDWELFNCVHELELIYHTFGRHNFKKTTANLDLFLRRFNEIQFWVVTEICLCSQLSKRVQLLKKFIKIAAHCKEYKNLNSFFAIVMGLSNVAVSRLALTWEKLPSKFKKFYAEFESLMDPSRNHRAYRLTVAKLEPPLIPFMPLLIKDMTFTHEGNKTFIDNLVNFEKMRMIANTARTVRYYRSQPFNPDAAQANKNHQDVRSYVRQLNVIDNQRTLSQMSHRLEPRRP
Assay: Validation qHTS for agonist of cAMP-regulated guanine nucleotide exchange factor 4 (EPAC2);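 also: exchange makes BODIPY-GDP fluorescence drop when released from Rap1B; series mostly up to about 150 µM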
Details: EPAC2 Rap1B BODIPY-GDP exchange, fluorescence; activation: stronger effect = higher value
In short: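 Signal normalized against 6.5 mM cAMP as agonist control. Mix of EPAC2 (100 nM), RAP1B-BODIPY-GDP (250 nM) and GDP (50 uM) was read kinetically at 480/540 nm, every 5 min over 30 min, after 5 min room-temperature incubation with compound.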
% is scaled to controls: 0 for no effect and ±100 for the full control effect.

activation, inactive:
CCOc1cccc(C(=O)c2ccc(O)c(O)c2O)c1 -23.3%, CC(=O)OC1CCC2(C)C3=C(CCC2C1(C)C)[C@]1(C)CCC(C(C)CCC=C(C)C)[C@]1(C)CC3 (stereo not given in full) -21.2%, CCCCCCCCCCCCCCCC(=O)NC(C)C -14.7%, COC(=O)c1c(OCCN2CCCCC2)cc(=O)n2c1CCN(Cc1cccc3nccnc13)CC2 0.43%, Cc1cnc(CNc2ncncc2-c2ccc3c(c2)OCO3)cn1 -13.9%, COc1ccc(CNc2ncnc3ccc(-c4ccc(N(C)C)cc4)cc23)c(OC)c1 3.66%, O=C(O)Cc1csc(-c2ccc(Cl)cc2)n1 -16.7%, Cc1nc2cnc(N(C)C)nc2n(C2CC2)c1=O -12.9%, Cc1ncc[nH]1 -10.1%, N#CCCn1c(=O)c(-c2ccc(F)cc2)nc2cnc(N3CCNCC3)nc21 -5.62%, NCCC[C@H](N)C(=O)O 6.07%, Clc1ccc(C(Cn2ccnc2)OCc2c(Cl)cccc2Cl)c(Cl)c1 (stereo not given) 20.1%, Cc1nc2sccn2c1CN1Cc2ccccc2OC(c2ccccc2F)C1 (stereo not given) -19.6%, CCCCCCCCCCCCCC(=O)OCC(COP(=O)([O-])OCC[N+](C)(C)C)OC(=O)CCCCCCCCCCCCC (stereo not given) -24.1%, C[C@@H]1Nc2ccc(Cl)cc2S(=O)(=O)N1 -11.1%, N#Cc1ccccc1OCC(O)CNCCNC(=O)Nc1ccccc1 (stereo not given) 8.72%, CC(=O)c1ccc(F)c(-c2cc(C)cc3c2OC(CNC(=O)Cc2c[nH]c4ccccc24)C3)c1 (stereo not given) -5.56%, CC(C)NC(=O)N1CCCC2(CCN(C(=O)c3csnn3)CC2)C1 -7.74%, NC(=O)N1c2ccccc2C=Cc2ccccc21 -11.7% and -12.1% and -10.5%, c1ccc2c(c1)OCC(CN1CCCCC1)O2 (stereo not given) 4.54%, COc1ccccc1CN1CCC2(CC1)c1ccccc1[C@@H](NC(=O)c1ccco1)[C@@H]2OC -12.9%, COc1ccccc1CN1CCC2(CC1)CCN(S(C)(=O)=O)CC2 -20.7%, CCOC(=O)C1=C(C)NC(C)=C(C(=O)OCC)C1c1c(F)c(F)c(F)c(F)c1F -97%, Cc1ccc2nc(CNC(=O)c3cc(NC(=O)c4ccccc4)cc4ncn(C5CCCC5)c34)cn2c1 1.85%, Cn1cccc1C(=O)N1CCC2(CC1)CN(C(=O)Nc1cccc(F)c1)C2 2.21%, COCCn1c(=O)cnc2cnc(OC)nc21 3.62%, C[C@@H](CCCCC(=O)Nc1ccc(C(F)(F)F)cc1)NCCc1cnc[nH]1 -5.3%, O=C(c1ccc2c(c1)OCO2)N(Cc1cc2cc3c(cc2nc1N1CCOCC1)CCC3)CC1CCCO1 (stereo not given) -15%, CN(C)CCN(Cc1cccs1)c1ccccn1 -17.7% and -24.2%, COCCn1c(=O)c(-c2cccc(C#N)c2)nc2cnc(N3CCNCC3)nc21 -13.4%, Cc1ccc(-c2nn(CC(C)(C)C)c3ncnc(N)c23)cc1 -9.47%, COc1ncc2nc(-c3ccc(F)cc3)c(=O)n(C3CC3)c2n1 -2.76%, CCOC(=O)C1OC1C(=O)NC(CC(C)C)C(=O)NCCC(C)C (stereo not given) -3.6%, CC(C)C(=O)NCC1CCC2(CCN(Cc3ccc(-c4cccc(Cl)c4)o3)CC2)O1 (stereo not given) -1.83%, NC(CO)(CO)CO -3.44%, CCn1c(-c2cccc(OC)c2)nc2cc(NC(C)=O)cc(C(=O)N(C)CC3COCCO3)c21 (stereo not given) -1.51%, CCC(Oc1ccccc1)C(=O)N[C@@H]1C(=O)N2[C@@H]1SC(C)(C)[C@@H]2C(=O)O (stereo not given in full) -24.5%, O=S(=O)(c1ccccc1)N1CCC2(CCCN(Cc3ccccc3)C2)CC1 1.68%, CN(C)Cc1ccccc1-c1ccc2ncnc(NCc3cccs3)c2c1 -7.25%, COc1ccc(Oc2ncc3ncc(=O)n(C)c3n2)cc1 5.1%, COc1ccc2c(c1)OCc1c-2oc2cc(OC)ccc12 5.89%, COc1ccc(C(=O)NCC2Cc3c(F)ccc(-c4nc(C)cnc4C)c3O2)cc1F (stereo not given) -11.4%, COc1c(O[C@@H]2O[C@H](CO)[C@@H](O)[C@H](O)[C@H]2O)cc2c(c1OC)-c1ccc(SC)c(=O)cc1[C@@H](NC(C)=O)CC2 2.85%, Cn1cccc1C(=O)N1CCC2(CCCN(c3ccncc3)C2)CC1 -6.44%, CC(=O)N1CCC2(CC1)CN(c1cccc(-c3ccccc3)c1)C2 -1.09%, CCCN[C@H]1CCc2nc(N)sc2C1 -12.9%, COc1ccc2c(c1)OC/C(=C/c1ccc(O)c(O)c1)C2=O 21.4%, Cc1nc2cnc(Oc3ccccc3)nc2n(Cc2cccs2)c1=O 0.505%, C[n+]1ccc(C(c2c[nH]c3ccccc23)c2cc[n+](C)c3ccccc23)c2ccccc21 2.98%, CCC(=O)N1CCN(C(=O)c2ccccc2)CC1 -17.3%, Cc1cn2c(=O)c3ccccc3nc2n2c(=O)c3ccccc3nc12 1.2%, Cc1cc(CNC(=O)c2cnn(-c3nccc(-c4cc(C)sc4C)n3)c2C2CC2)on1 3.23%, CSc1nc(NC2CCCC2)c([N+](=O)[O-])c(NC2CCCC2)n1 -15.6%, O=C(O)c1cccs1 -13.4%, CC(=O)C[C@H]1c2cc(C(F)(F)F)ccc2S(=O)(=O)N1C1CCCC1 -17.6%, CCc1nc2cc(C(=O)NC3CCOC(C)(C)C3)cc(NC(=O)c3ccccc3OC)c2n1C (stereo not given) 0.106%, Cn1cc(-c2nc3cncnc3n(-c3ccccc3)c2=O)c2ccccc21 -151%, CCC(COC)NC(=O)c1cnn(-c2ncc3c(n2)-c2ccccc2CCC3)c1C (stereo not given) 0.118%, Cc1nc2ccccc2n1Cc1ccc(Cl)cc1 -17.9%, CN(C)c1ccc(-c2cncnc2N(C)Cc2ccco2)cc1 6.2%, COc1ccccc1-c1ccc2ncnc(Nc3ccccc3)c2c1 -9.21%, Cc1cc2c(c(-c3ccc(Cl)cc3)c1)OC(CNC(=O)CCC(=O)N(C)C)C2 (stereo not given) -28.1%, COc1ccc(NC(=O)/C=C/c2ccc(Cl)cc2)cc1 0.558%, CCCCCCCCCCCCCCCC(=O)OC[C@@H](COP(=O)([O-])OCC[N+](C)(C)C)OC(=O)CCCCCCCCCCCCCCC -14.7%, C[C@@H](/C=C\c1cccc(Oc2ccc(F)cc2)c1)N(O)C(N)=O -36.1%, CNC(=O)c1cc2c(cn1)[nH]c1ccccc12 -1.12% and -1.23% and -18.6%, Cc1cc(=O)oc2cc(O)ccc12 -16.8%, COC(=O)C1CCCCN1Cc1ccc2c(c1)CN(C(=O)c1ccc(F)cc1)CCO2 (stereo not given) -1.05%, COc1ncc2nc(C)c(=O)n(C3CC3)c2n1 1.37%, CCC1CN(CCNC(=O)c2cccc(C)n2)Cc2cc(OC)ccc2O1 (stereo not given) -4.15%, COc1cc(/C=C/C(=O)N2CCN(CC(=O)N3CCCC3)CC2)cc(OC)c1OC 7.62%, CCCCCCCCCCCCCCCCCCOP(=O)([O-])OC1CC[N+](C)(C)CC1 -20.5%, CNc1ncnc2c1ncn2[C@H]1C[C@H](OP(=O)(O)O)[C@@H](COP(=O)(O)O)O1 -13.8%, COc1ncc2nc(CCc3ccccc3)c(=O)n(CCC#N)c2n1 -14.9%, Nc1ncn([C@@H]2O[C@H](CO)[C@@H](O)[C@H]2O)c(=O)n1 -14.2% and -14.3%, CCCNC(C)C(=O)Nc1ccccc1C (stereo not given) -7.01% and -13.3% and -13%, CC(=O)Nc1ccc(-c2nc3ccc(Cl)cc3[nH]2)cc1 -4.64%, CCCCC[C@H](O)/C=C/[C@@H]1[C@@H](C/C=C\CCCC(=O)O)[C@@H](O)C[C@H]1O 2.31% and -3.33%, CN[C@H](CC(C)C)C(=O)N[C@H]1C(=O)N[C@@H](CC(N)=O)C(=O)N[C@H]2C(=O)N[C@H]3C(=O)N[C@H](C(=O)N[C@@H](C(=O)O)c4cc(O)cc(O)c4-c4cc3ccc4O)[C@H](O)c3ccc(c(Cl)c3)Oc3cc2cc(c3O[C@@H]2O[C@H](CO)[C@@H](O)[C@H](O)[C@H]2O[C@H]2C[C@](C)(N)C(O)[C@H](C)O2)Oc2ccc(cc2Cl)[C@H]1O (stereo not given in full) 2.42% and -6.97%, CCSC(=N)N 1.23% and -12.4% and 1.22%, CCC(N)(C(=O)O)c1ccc(C(=O)O)cc1 (stereo not given) 0.302%, CN(C)Cc1ccccc1-c1nccc(N(C)C)n1 -7.19%, CC(=O)c1ccc(S(=O)(=O)NC(=O)NC2CCCCC2)cc1 -4.79% and 12.6%, CN(Cc1ccco1)c1ncnc2ccc(-c3cccc(C#N)c3)cc12 5.25%, CN(CCO)CC(O)Cn1cnc2c1c(=O)n(C)c(=O)n2C (stereo not given) (tested in a mixture with another compound) 9.71%

From PubChem BioAssay AID1645887 (National Center for Advancing Translational Sciences (NCATS), 2021)
